# Measured values published in the supplement of paper PMC3724861.
# The list shows a part of the results.
# Tested on: T1, Caupolican (Caup) homeodomain DNA-binding domain
# T1 sequence: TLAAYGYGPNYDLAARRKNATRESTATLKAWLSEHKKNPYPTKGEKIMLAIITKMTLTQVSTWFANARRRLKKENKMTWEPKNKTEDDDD
# Test: PBM E-score (8-mer, recovered from the published 9-mer minima) (E-score (dimensionless, -0.5 to 0.5)); Drosophila protein; higher = stronger relative binding preference, active = 0.31 or more
# In short: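 Caup's homeodomain DNA-binding domain (residues 214-303) was made by in vitro transcription and translation and applied at 100 nM to custom-designed protein binding microarrays. Each value is an enrichment score that gives relative binding preference for a short DNA word, with higher meaning stronger. The 8-mer values were recovered from published 9-mer scores, each of which was the minimum of its two constituent 8-mer scores. A cutoff of 0.31 marks candidate sites.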
row,Sequence,PBM E-score
1,TCTAAGAA,inactive: 0.0455
2,ACTCGTAG,inactive: 0.0446
3,AGACCGCG,≥ -0.0645
4,GAAAATGC,inactive: -0.0074
5,AGTCAGAC,inactive: -0.0283
6,ATCAACGG,inactive: 0.00112
7,AGCCGATC,inactive: -0.0478
8,CAGATACC,inactive: 0.0195
9,CCTATCAG,inactive: -0.029
10,ACTGGTTG,inactive: 0.0109
11,AGAGCCTG,inactive: -0.0589
12,GCAATGCA,inactive: 0.0191
13,CGTGGTAA,≥ 0.159
14,ATGTTTCG,inactive: 0.173
15,ATTTGTGC,inactive: 0.0549
16,CCACCTGG,inactive: -0.113
17,ACCGCTAT,inactive: -0.0581
18,TAAGGAGA,inactive: -0.0521
19,CCCTTGAA,inactive: -0.0597
20,ATCCACCG,inactive: -0.0335
21,CAGTTTGG,inactive: -0.0942
22,GCGTGAGC,inactive: -0.149
23,GTCCACCA,inactive: -0.0287

row,Sequence,PBM E-score
1,CCTCTTTC,inactive: -0.127
2,CGATATGC,inactive: 0.0375
3,GGTTCTAA,inactive: -0.0345
4,CATTACAC,active: 0.311
5,CATTCTGG,inactive: -0.0669
6,CTGAAGGA,inactive: -0.173
7,AAGTGGCG,≥ -0.0381
8,CTCTAACA,inactive: 0.152
9,GCTCGTGA,inactive: -0.064
10,ACCACGAT,≥ 0.148
11,AATTCTTC,inactive: -0.0448
12,CTCTAGTA,inactive: 0.126
13,AGTAGTCC,inactive: -0.0227
14,TACACTCA,≥ 0.179
15,GGGGCGGA,inactive: -0.329
16,ATGTCGAA,inactive: 0.291
17,CATCCGGA,inactive: -0.00251
18,ACCCACCA,inactive: -0.0814
19,CCTCGGTC,inactive: -0.135
20,CTTAGAAC,inactive: -0.00381
21,CATTAGAG,inactive: -0.0558
22,AGACTCAA,inactive: 0.0337
23,CTAAAACA,inactive: 0.191

row,Sequence,PBM E-score
1,AATGAATG,inactive: 0.169
2,CGAATGGA,≥ 0.0344
3,TGTTTTAA,inactive: 0.254
4,ATTCCCGA,inactive: -0.0386
5,ACGTTTAC,inactive: 0.106
6,AATTAAAA,inactive: 0.0931
7,CATACACA,inactive: 0.309
8,ATCTACCG,inactive: -0.0221
9,AACTAGAG,inactive: 0.0141
10,TGACTGAA,inactive: -0.0626
11,AGACACGA,inactive: 0.261
12,CGCACACC,inactive: -0.0918
13,ACGGCTTA,inactive: -0.137
14,GCTTAGCC,inactive: -0.113
15,CATCTGGG,inactive: -0.0619
16,GGGATGCA,inactive: -0.124
17,ACAATCTA,inactive: 0.136
18,GATACTCA,inactive: -0.0139
19,GACTCGCC,inactive: -0.195
20,CCGAGTGA,inactive: 0.00532
21,ATCACTCA,inactive: 0.0935
22,GGGAGCGA,inactive: -0.21
23,GATCTAAA,inactive: -0.0342

row,Sequence,PBM E-score
1,ACTAGAGG,inactive: -0.0325
2,CCATACGG,inactive: -0.049
3,TTAGGCAA,inactive: -0.00698
4,ACAACACG,active: 0.387
5,GGGGACGA,inactive: -0.139
6,AACATAAA,inactive: 0.286
7,AGATTTAT,inactive: 0.0344
8,AATTACAA,active: 0.396
9,GTAGCGCA,inactive: -0.05
10,GCGTATTA,inactive: 0.0562
11,TAGCGCAA,inactive: -0.00448
12,AACGCACT,≥ 0.0457
13,CTGGGACA,inactive: 0.0672
14,CCGGCTAA,inactive: -0.0794
15,AAGGACAA,inactive: 0.223
16,AATTTGTG,inactive: 0.106
17,AAACTTCT,inactive: 0.0695
18,GGCAAGCC,inactive: -0.165
19,CCTAACAC,inactive: 0.132
20,ACTCCCTA,inactive: 4e-05
21,CGGCTTAG,inactive: -0.235
22,GGGTAGTA,inactive: 0.0131
23,CACATCAG,inactive: 0.0583

row,Sequence,PBM E-score
1,ATTAGTCG,inactive: 0.13
2,ACGGTCTC,inactive: -0.134
3,AGTACGCC,inactive: -0.0929
4,CCGAGCAC,inactive: -0.11
5,AGAAGGCA,≥ -0.111
6,GAAGTCCA,inactive: -0.0703
7,GCATTTAA,inactive: 0.11
8,CCATCGCG,inactive: -0.1
9,AGCAGAGA,inactive: -0.0842
10,GGCGAAAA,inactive: -0.0815
11,ACGAAATG,inactive: 0.0544
12,AATGCCGA,inactive: -0.0808
13,CACCCGAA,inactive: -0.0428
14,GTCGTCGA,inactive: 0.032
15,AGCGCCGC,inactive: -0.25
16,CTATAATC,inactive: 0.135
17,CTGCCGCA,inactive: -0.22
18,CTTTAGAA,inactive: 0.0157
19,ACGTAGGA,inactive: 0.0363
20,ACGCTGTA,inactive: 0.151
